From patent US20240050583A1, “PROTEIN-DRUG CONJUGATE AND SITE-SPECIFIC CONJUGATING METHOD” (HARBOUR BIOMED (SHANGHAI) CO., LTD, priority 2020, published 2024)

T1: HCC1954 cells highly expressing human 5T4 (Homo sapiens, UniProt Q13641)
T1 construct: a human breast cancer cell strain HCC1954 (ATCC, CRL-2338) highly expressing human 5T4; host or cells: HCC1954
T1 sequence (Q13641 32-420): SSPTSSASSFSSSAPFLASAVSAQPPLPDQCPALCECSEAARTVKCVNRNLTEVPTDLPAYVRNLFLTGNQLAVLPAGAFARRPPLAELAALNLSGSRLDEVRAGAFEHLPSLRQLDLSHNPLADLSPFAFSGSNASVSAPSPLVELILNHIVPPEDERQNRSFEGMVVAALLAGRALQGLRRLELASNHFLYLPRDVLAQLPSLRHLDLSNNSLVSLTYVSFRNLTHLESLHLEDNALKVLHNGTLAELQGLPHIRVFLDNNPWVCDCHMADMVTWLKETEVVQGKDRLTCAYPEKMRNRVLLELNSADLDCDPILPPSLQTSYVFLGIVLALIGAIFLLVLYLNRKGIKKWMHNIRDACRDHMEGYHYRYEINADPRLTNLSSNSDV

B1: PR004432: anti-5T4 HCAb antibody, SEQ ID NO: 69 (antibody)
heavy: EVQLQQSGPGLVKPSQTLSLTCAISGDSVSNNYAAWNWIRQSPSRGLEWLGRTYYRSKWYNDYAVSVKSRITINPDTSKNQFSLQLNRVTPEDTAVYYCARDNYYGSGSPPVDALDIWGQGTMVTVSS[not shown - human IgG1 Fc]
B2: PR002129: anti-ROR1 antigen-binding protein with scFv-Fc dimer structure, SEQ ID NO: 71 (protein)
chain: QVQLVQSGGGVVQPGRSLRLSCAASGFTFSSYGMHWVRQAPGKGLEWVAVIWYDGSNKDYADSVKGRFTISRDTSKNTLYLQMNSLRAEDTAVYYCAREQARSFDLWGRGTLVTVSSGGGGSGGGGSGGGGSDIQLTQSPYSLSASVGDRVTITCRASQTINNWLAWYQQKPGKAPKLLIYKASSLESGVPSRFSGSGSGTEFTLTISSLQPDDFATYYCQQYKLYSPMYTFGQGTKVEIKGGGAS[not shown - human IgG1 Fc]
modifications: PR002129 SCFV
B3: PR002129-ADC (conjugate)
chain: B2 chain

Key:
[1] = biological target: T1, HCC1954 cells highly expressing human 5T4; experiment: FACS binding to cells highly expressing 5T4; conditions: flow cytometry FACS
Description: Specifically, the cell density was adjusted to 1×10^6 cells/mL. The cells were seeded in a 96-well V-bottom plate (Corning, #3894) at 100 μL/well, followed by the addition of test antibodies diluted in a 3-fold gradient at a concentration that was 2 times the final concentration, each at 100 μL/well. The cells were incubated at 4° C. for 1 h away from light. Thereafter, the cells in each well were rinsed twice with 100 μL of pre-cooled PBS, and centrifuged at 500 g at 4° C. for 5 min, and then the supernatant was discarded. Thereafter, a fluorescent secondary antibody (Alexa Fluor 488-conjugated AffiniPure Goat Anti-Human IgG, Fcγ Fragment Specific, Jackson ImmunoResearch Inc., #109-545-098, diluted in a 1:500 ratio) was added at 100 μL/well, and the plate was incubated at 4° C. for 30 min away from light. The cells in each well were then rinsed twice with 100 μL of pre-cooled PBS and centrifuged at 500 g at 4° C. for 5 min, and then the supernatant was discarded. Finally, the cells in each well were resuspended in 200 μL of pre-cooled PBS. Fluorescence signal values were read using a BD FACS CANTOII flow cytometer, and the data were processed and analyzed using FlowJo v10 (FlowJo, LLC) software.

[2] = Melting temperature (Tm) by Uncle protein stability platform; type: physicochemical
Excerpt: Unchained Labs (Uncle) is a multifunctional one-stop protein stability analysis platform that characterizes protein stability by total fluorescence, static light scattering (SLS) and dynamic light scattering (DLS) assay methods. The parameters of melting temperature (Tm), aggregation temperature (Tagg) and particle size (diameter) can be obtained simultaneously for the same group of samples. In this example, an “Tm & Tagg with optional DLS” application of Uncle was selected for the determination. 9 μL of sample was added to a Uni tube, and the temperature was set to gradually increase from 25° C. to 95° C. at a gradient of 0.3° C./min. Four acquisitions of data were performed at the beginning and end of DLS assay, each for 5 s. After the experimental run was finished, the Tm value of each sample was calculated according to a barycentric mean (BCM) formula using the Uncle analysis software, the Tagg value was calculated from a curve (aggregation curve) of fluorescence intensity of SLS at the wavelength of 266 nm or 473 nm, and the particle size and dispersion of the samples were calculated from DLS related functions.
This example is to study the influence of the disulfide bond of Cys-220 on molecular structural stability. […]

[3] = Coupling product components (DAR) by HIC-HPLC; conditions: coupling product; Experiment 20210202-2: protein 6.5 mg/ml, TCEP 2.3 x, VcMMAE 7.0 x
Description: In this example, analytical hydrophobic interaction chromatography (HIC) was used to analyze the protein sample for purity and hydrophobicity. […] The program for HPLC was set: a linear gradient from 100% buffer A (25 mM phosphate buffer, 1.5 M ammonium sulfate ((NH4)2SO4), pH 7.0-7.2) to 100% buffer B (20 mM phosphate buffer, 20% isopropyl alcohol (IPA), pH 7.0-7.2) over about 22 min; flow rate: 0.7 mL/min; protein sample concentration: 1 mg/mL; and injection volume: 20 μL. The detection wavelength was 280 nm. Operation was performed at room temperature. After being recorded, the chromatogram was integrated using ChemStation software and relevant data were calculated. An analysis was generated, with the retention time of the components with different molecular sizes in the sample reported; the number of coupling molecules carried by different components of the coupling product could be inferred by different retention time.

[4] = biological target: T2, PanC-1 cells highly expressing human ROR1 (Homo sapiens, UniProt Q01973); experiment: FACS binding to cells highly expressing ROR1; conditions: flow cytometry FACS
T2 construct: tumor cells PanC-1 (ATCC, CRL-1469) highly expressing human ROR1; host or cells: PanC-1
Description: The binding ability of the antigen-binding protein to tumor cells PanC-1 (ATCC, CRL-1469) highly expressing human ROR1 was determined by flow cytometry FACS. Specifically, the cells were digested and resuspended in a DMEM complete medium, and the cell density was adjusted to 1×10^6 cells/mL. The cells were seeded in a 96-well V-bottom plate (Corning, #3894) at 100 μL/well, followed by the addition of test binding proteins diluted in a 3-fold gradient at a concentration that was 2 times the final concentration, each at 100 μL/well. The cells were incubated at 4° C. for 1 h away from light. Thereafter, the cells in each well were rinsed twice with 100 μL of pre-cooled PBS, and centrifuged at 500 g at 4° C. for 5 min, and then the supernatant was discarded. Thereafter, a fluorescent secondary antibody (Alexa Fluor 488-conjugated AffiniPure Goat Anti-Human IgG, Fcγ Fragment Specific, Jackson ImmunoResearch Inc., #109-545-098, diluted in a 1:500 ratio) was added at 100 μL/well, and the plate was incubated at 4° C. for 30 min away from light. The cells in each well were then rinsed twice with 100 μL of pre-cooled PBS and centrifuged at 500 g at 4° C. for 5 min, and then the supernatant was discarded. […] Fluorescence signal values were read using a BD FACS CANTOII flow cytometer, and the data were processed and analyzed using FlowJo v10 (FlowJo, LLC) software.

[5] = Molecular weight and coupling product components (DAR) by LC-MS; conditions: non-reduced sample
Excerpt: In this example, liquid chromatography-mass spectrometry (LC-MS) was used to analyze the protein sample for molecular weight. Those skilled in the art can use different models of liquid chromatography (LC) and mass spectrometer (MS) to establish similar analytical methods according to the technical instructions and through experimental exploration. Only representative methods are listed in this example.
In certain specific embodiments, determination of the molecular weight of a protein sample required desaccharification on the sample to remove modifications such as saccharide chains, for example, the sample was processed with glycosidase PNGase F (NEB, #P0705L) at 37° C. for at least 4 h. For example, in all examples of the present invention, when the molecular weight of protein samples was determined, unless otherwise emphasized, the protein samples to be tested were subjected to desaccharification by the glycosidase PNGase F.
In certain specific embodiments, determination of the reduced molecular weight of a protein sample required reduction on the sample, for example, the sample was processed with […] dithiothreitol (DTT) at 37° C. for 10 min. For example, in all examples of the present invention, the samples after reduction were called reduced samples, and the samples without reduction were called non-reduced samples.
Buffer A was 0.1% formic acid FA dissolved in water, and buffer B was 0.1% formic acid FA dissolved in acetonitrile. Injection: about 1 μg; flow rate: 0.3 mL/min; and operation temperature: 80° C. When reduced samples were tested, buffer A and buffer B were mixed within 12 min to form a linear gradient: using 10-60% B for the first 8 min and 80% B for the last 4 min. When non-reduced samples were tested, buffer A and buffer B were mixed within 9 min to form a linear gradient: using 15-60% B for the first 6 min and 80% B for the last 3 min.
Buffer A was 0.1% formic acid FA dissolved in water, and buffer B was 0.1% formic acid FA dissolved in acetonitrile. Injection: about 10 μL; flow rate: 0.2-0.5 mL/min; and operation temperature: 80° C. The detection wavelength was 214 nm.
In certain specific embodiments, the model of a mass spectrometer used was AB Sceix X500B, and the operating mode thereof was TOF-MS; when reduced samples were tested, a scanning range was 600-4000 m/z; when non-reduced samples were tested, a scanning range was 900-6000 m/z. Original mass spectrums were deconvolved by Sceix OS software to obtain molecular weight maps.
In certain other specific embodiments, the model of a mass spectrometer used was Waters Xevo G2-XS Q-TOF, and a molecular weight scanning range thereof was 500-4000 Da. Original mass spectrums were deconvolved by Water MaxEnt or Agilent MassHunter BioConfirm software.
In multiple specific embodiments of the present application, the combination set of different LC and MS conditions was used to achieve LC-MS combination for determining the molecular weight of protein samples. For example, in 0 and 0, the combination of conditions used was (chromatography column: ACQUITY UPLC Protein BEH C4; LC instrument: Waters Acquity UPLC; MS instrument: Waters Xevo G2-XS Q-TOF).

[6] = lot CY20210202, before purification

T2 sequence (Q01973 30-937): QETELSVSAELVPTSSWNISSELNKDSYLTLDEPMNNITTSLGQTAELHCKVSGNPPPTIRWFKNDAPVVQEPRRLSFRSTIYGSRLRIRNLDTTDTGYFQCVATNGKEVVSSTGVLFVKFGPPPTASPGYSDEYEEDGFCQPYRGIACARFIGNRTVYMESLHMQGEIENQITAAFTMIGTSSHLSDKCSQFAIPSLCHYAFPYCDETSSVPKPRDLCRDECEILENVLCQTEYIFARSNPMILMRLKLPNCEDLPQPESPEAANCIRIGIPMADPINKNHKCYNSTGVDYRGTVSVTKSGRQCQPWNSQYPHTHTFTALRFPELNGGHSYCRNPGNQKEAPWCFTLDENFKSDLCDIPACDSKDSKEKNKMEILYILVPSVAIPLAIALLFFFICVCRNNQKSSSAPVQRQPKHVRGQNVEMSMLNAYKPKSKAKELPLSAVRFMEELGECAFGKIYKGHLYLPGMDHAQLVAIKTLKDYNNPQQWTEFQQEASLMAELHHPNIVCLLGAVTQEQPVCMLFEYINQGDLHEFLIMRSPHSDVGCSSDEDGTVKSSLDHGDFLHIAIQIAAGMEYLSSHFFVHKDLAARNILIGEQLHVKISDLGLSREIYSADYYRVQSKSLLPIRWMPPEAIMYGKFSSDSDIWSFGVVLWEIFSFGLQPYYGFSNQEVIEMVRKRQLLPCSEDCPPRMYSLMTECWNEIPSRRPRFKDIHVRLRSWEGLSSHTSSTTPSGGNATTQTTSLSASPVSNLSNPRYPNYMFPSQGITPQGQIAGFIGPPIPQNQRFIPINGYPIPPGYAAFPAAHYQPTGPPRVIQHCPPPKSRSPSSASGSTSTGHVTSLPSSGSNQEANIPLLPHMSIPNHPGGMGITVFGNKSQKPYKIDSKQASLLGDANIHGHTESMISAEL

| Molecule | binding activity to HCC1954 cells [1] | Tm1 (minimum melting temperature) [2] [°C] | Average DAR [3] | binding activity to PanC-1 cells [4] | Content of DAR = 2 component [5, 6] [%] | Content of DAR = 4 component [5, 6] [%] | Content of DAR = 2 component ([5]; lot HSP31405-20200820, after purification) |
| --- | --- | --- | --- | --- | --- | --- | --- |
| B1 | strong specific binding activity | 70.66 | – | – | – | – | – |
| B2 | – | – | 2.07 | strong specific binding activity | – | – | – |
| B3 | – | – | – | strong specific binding activity | 74.1 | 9.0 | Main |
